In all, about 360,000 compounds went through this assay and about 7,500 (2.1%) were called active. The inconclusive results got no clear call from the source; some entries with a clear call stand among them for comparison. Calls follow the shape of the dose curve; as a rule, active = well fitted cell-killing curve with a large enough effect; inconclusive = small, poorly fitted or top-dose-only effect, or effect the other way, or another doubt; inactive = no such curve, though single readings can be large or run the other way. Potencies of inconclusive entries are doubtful fits and often do not repeat.
test: qHTS for induction of synthetic lethality in tumor cells producing 2HG: qHTS for the HT-1080-IDH1KD cell line; conditions: HT-1080 IDH1 knockdown viability, ATP luminescence, 48 h; activity, negative = toxicity: at 46.1 µM (top of the series) unless noted;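 as to activity, negative = toxicity: 0% = DMSO wells and -100% = cell-free medium wells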
Procedure, shortened: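 After a 2 h attachment period, IDH1KD HT-1080 cells took pin-transferred compound for 48 h at 37 °C; ATP-based luminescence after 10 min room-temperature reagent incubation reported viability.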
Potency is read from the fitted curve at half-maximal effect; tags tell the direction and shape of the fitted curve.

Structure (SMILES) | Potency | activity, negative = toxicity
CCN(C(=O)CN1CC=C(c2ccccc2)CC1)c1c(N)n(Cc2ccccc2)c(=O)[nH]c1=O | inactive | –
COc1ccc(-c2cc(C3CCN(c4cc(Cl)nc(N)n4)CC3)[nH]n2)cc1 | inconclusive: 22.4 µM [cytotoxic, single point] | –
CCOC(=O)C(O)(c1ccc(NC(=S)NC(=O)c2ccc(Cl)cc2Cl)c(C)c1)C(F)(F)F (stereo not drawn) | active: 23.1 µM | –
Cc1nn(-c2nc3ccccc3s2)c(C)c1Oc1ccccc1O | active: 12.6 µM | –
CN(C)/C=C(\C=[N+](C)C)c1[nH]ncc1[N+](=O)[O-] | inconclusive: 23.1 µM [rising, single point] | –
O=P1(NCCCn2cc[n+](Cc3nc4ccccc4[nH]3)c2)C=C(c2ccccc2)OC(c2ccccc2)=C1 | inactive | –
CSCCC(c1nnnn1-c1ccc2c(c1)OCCO2)N1CCC2(CC1)C(=O)NCN2c1ccccc1 (stereo not drawn) | inconclusive: 20.6 µM [cytotoxic, single point] | –
NC(=O)Nc1cccc(C(F)(F)F)c1 | inactive | –
CCOc1cccc(CNCCc2c(C)[nH]c3ccc(OC(F)(F)F)cc23)c1O | active: 18.4 µM | –
Cc1cccc(-n2c(C)nc3cc(C(=O)N4CCC5(CC4)OCCO5)ccc32)c1 | inconclusive: 31.6 µM [cytotoxic, single point] | –
COc1cc(C2Nc3ccc4ncccc4c3C3=C2C(=O)CC(C)(C)C3)cc(OC)c1O (stereo not drawn) | inconclusive: 10 µM [cytotoxic, partial curve] | –
Oc1ccc(Br)cc1CN1CCN(c2ccccc2)CC1 | inconclusive: 20 µM [cytotoxic, single point] | –
C=CCN1C(=O)c2ccccc2Sc2ccc(C(=O)N3CCC4(CC3)OCCO4)cc21 | inconclusive: 17.8 µM [cytotoxic, single point] | –
COC(=O)c1cn(Cc2ccc(F)cc2)c2ccccc12 | inconclusive: 29.1 µM [cytotoxic, single point] | –
CCOC(=O)[C@]12Cc3cc(OC)ccc3[C@H]1N(CCC(=O)OC)C(=O)c1cc(OC)ccc12 | inconclusive: 29.1 µM [cytotoxic, single point] | –
O=c1cccc2n1CC1CC2CN(Cc2cccc(Cl)c2Cl)C1 (stereo not drawn) | inconclusive: 35.5 µM [cytotoxic, single point] | –
O=S1(=O)N(CCN2CC=C(c3c[nH]c4cc(F)ccc34)CC2)c2cccc3c2N1CCC3 | active: 16.4 µM | –
COC(=O)C1=C(c2ccc(F)cc2OCc2ccccc2)C[C@@H]2CC[C@H]1N2C(=O)NCc1ccc2c(c1)OCO2 | inconclusive: 20.6 µM [cytotoxic, single point] | –
CC1=CC(C)CC(C)OC(=O)CC(c2ccc(O)cc2)NC(=O)C(Cc2c(Br)[nH]c3ccccc23)N(C)C(=O)C(C)NC(=O)C(C)C1 (stereo not drawn) | active: 0.0517 µM | –
O=C(CF)N(O)c1ccc(C=Cc2ccccc2)cc1 | inconclusive: 23.1 µM [cytotoxic, single point] | –
O=C1C=C(N2CC2)c2ccccc2C1=O | inconclusive: 20.6 µM [cytotoxic, partial curve] | –
CN1C(=O)N(C)C(=O)C(CCc2ccncc2)(Cc2ccc3c(c2)OCO3)C1=O | – | inconclusive: 6.63% [at 9.24 µM]

Structure (SMILES) | Potency | activity, negative = toxicity
CN(C)CCCN1c2ccccc2Sc2ccc(Cl)cc21 | inactive | –
CC(=CCOc1ccc2ccc(=O)oc2c1)C1=CC(=O)C(C)(C)O1 | inconclusive: 29.1 µM [cytotoxic, single point] | –
O=c1c2ccccc2[nH]c(=S)n1-c1cccc(C(F)(F)F)c1 | inactive | –
Fc1ccc(CNCCc2c[nH]c3ccccc23)cc1 | inconclusive: 25.9 µM [cytotoxic, single point] | –
C/C=C(\C)C(=O)N[C@@H](c1ccccc1)[C@@H](O)C(=O)O[C@H]1C[C@@]2(O)[C@@H](OC(=O)c3ccccc3)C3[C@](C)(C(=O)[C@H](O)C(=C1C)C2(C)C)[C@@H](O)C[C@H]1OC[C@@]31OC(C)=O (stereo partly drawn) | active: 0.0058 µM | –
Cc1cc(C)c(C(=O)COC(=O)Cn2nc(-c3ccccc3)oc2=O)cc1C | inconclusive: 23.1 µM [rising, partial curve] | –
CC(C)(C)N1CC(C(=O)c2ccccc2)C1c1ccccc1 (stereo not drawn) | inconclusive: 29.1 µM [cytotoxic, single point] | –
Cc1cccc(N2C(=O)NC(=O)/C(=C\c3cc(C)n(-c4sc5c(c4C#N)CCCC5)c3C)C2=O)c1C | active: 16.4 µM | –
COc1ccc(S(=O)(=O)Nc2ccccc2OC)cc1N=Nc1c(O)[nH]c(=S)[nH]c1=O | active: 11.6 µM | –
Cc1ccc(C2=NC(C)(C)N3C2C3c2ccc([N+](=O)[O-])cc2)cc1 (stereo not drawn) | inactive | –
O=[N+]([O-])c1cccc(CN2CCN(Cc3ccc(Br)cc3)CC2)c1 | inactive | –
COc1ccc(-n2nnnc2C(c2ccccc2OC(F)(F)F)N2CCC(n3c(=O)[nH]c4ccccc43)CC2)cc1 (stereo not drawn) | inconclusive: 16.4 µM [cytotoxic, single point] | –
NC(Cc1ccc(F)cc1)c1csc(Nc2ncccn2)n1 (stereo not drawn) | active: 6.51 µM | –
c1ccc2c(CCN3CCCCC3)c[nH]c2c1 | inconclusive: 25.9 µM [cytotoxic, single point] | –
CC(C)CNC(=O)c1c(N)n(Cc2ccco2)c2nc3ccccc3nc12 | inconclusive: 16.4 µM [cytotoxic, partial curve] | –
CCN(C(=O)COC(=O)C(O)(c1ccccc1)c1ccccc1)c1c(N)n(Cc2ccccc2)c(=O)[nH]c1=O | inactive | –
CCC1C(c2ccccc2)NC(c2ccccc2)CC1(O)c1ccc(F)cc1 (stereo not drawn) | inconclusive: 25.9 µM [cytotoxic, single point] | –
COc1ccc(CCC(C)NCCc2ccccc2)cc1 (stereo not drawn) | inconclusive: 20 µM [cytotoxic, single point] | –
Fc1ccc(C[n+]2c(-c3ccccc3)cc(-c3ccccc3)cc2-c2ccccc2)cc1 | active: 18.4 µM | –
CCCOP(=O)(OCCC)C(Nc1ccc(C(C)C)cc1)c1ccc([N+](=O)[O-])cc1 (stereo not drawn) | inconclusive: 22.4 µM [cytotoxic, single point] | –
CSCCC(N=Cc1c(O)n(-c2ccc(Cl)cc2)c(=O)[nH]c1=O)C(=O)OC(C)(C)C (stereo not drawn) | inactive | –

Source: PubChem BioAssay AID686971 (National Center for Advancing Translational Sciences (NCATS), 2013)
